The values below come from PMC4336329 (PLoS ONE, 2015).

About 2,200 (0.71%) of roughly 310,000 compounds showed an effect of 50% or more. The effect is printed as a negative number. This is one part of the list.

human ether-à-go-go-related gene (hERG) potassium channel, sequence (Q12809 whole entry, looked up): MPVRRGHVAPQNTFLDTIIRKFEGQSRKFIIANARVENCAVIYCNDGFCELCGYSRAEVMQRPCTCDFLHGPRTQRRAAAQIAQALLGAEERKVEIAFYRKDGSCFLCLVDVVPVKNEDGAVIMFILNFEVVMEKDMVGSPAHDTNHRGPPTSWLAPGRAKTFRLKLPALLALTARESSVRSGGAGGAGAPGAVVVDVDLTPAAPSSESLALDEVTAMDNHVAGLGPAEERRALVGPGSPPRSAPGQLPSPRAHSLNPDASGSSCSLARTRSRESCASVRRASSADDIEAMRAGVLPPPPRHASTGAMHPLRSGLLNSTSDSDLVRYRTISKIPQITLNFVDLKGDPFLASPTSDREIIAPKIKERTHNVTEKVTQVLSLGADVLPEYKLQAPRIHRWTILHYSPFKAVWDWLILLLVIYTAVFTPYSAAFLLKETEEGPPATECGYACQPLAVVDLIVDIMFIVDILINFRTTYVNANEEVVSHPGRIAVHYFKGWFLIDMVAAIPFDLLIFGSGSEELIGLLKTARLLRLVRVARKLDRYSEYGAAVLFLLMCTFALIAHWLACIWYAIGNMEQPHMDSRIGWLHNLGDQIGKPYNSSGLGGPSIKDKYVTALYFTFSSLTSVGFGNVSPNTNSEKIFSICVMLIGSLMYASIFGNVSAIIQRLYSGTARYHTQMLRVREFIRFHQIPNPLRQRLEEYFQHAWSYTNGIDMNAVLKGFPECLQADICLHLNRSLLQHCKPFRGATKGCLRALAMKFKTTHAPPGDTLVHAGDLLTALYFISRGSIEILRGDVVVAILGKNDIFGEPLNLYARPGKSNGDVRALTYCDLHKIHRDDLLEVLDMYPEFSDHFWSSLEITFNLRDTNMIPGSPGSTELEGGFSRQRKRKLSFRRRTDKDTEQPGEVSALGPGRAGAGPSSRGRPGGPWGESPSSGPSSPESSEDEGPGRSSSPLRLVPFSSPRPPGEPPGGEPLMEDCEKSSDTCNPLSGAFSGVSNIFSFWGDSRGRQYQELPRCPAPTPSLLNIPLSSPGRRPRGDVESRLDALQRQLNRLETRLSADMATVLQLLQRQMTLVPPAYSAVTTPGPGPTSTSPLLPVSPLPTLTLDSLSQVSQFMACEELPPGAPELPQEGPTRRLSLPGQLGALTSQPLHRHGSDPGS

The assay has as its target human ether-à-go-go-related gene (hERG) potassium channel (human, UniProt Q12809). Kind of assay: primary screen, population patch clamp on CHO cells stably expressing hERG.
On to `COc1ccc2nc(/C(C#N)=C\c3ccc(Oc4ccc([N+](=O)[O-])cn4)cc3)[nH]c2c1`, for which the “hERG current change (%, negative = inhibition) at 1uM” value was -11.3%.
In the case of `O=C(CSc1ccc(-c2ccccn2)nn1)N1CCCCC1`, the “hERG current change (%, negative = inhibition) at 1uM” value is -5.84%.
Consider `COc1ccc(NC(=O)CSc2nc3ccccc3nc2N2CCCC2)cc1Cl`, for which the “hERG current change (%, negative = inhibition) at 1uM” value is given as -8.71%.
As for `COc1ccc(NC2(c3ccc(Cl)cc3)C(=O)c3ccccc3C2=O)cc1`, the figure is -1.18%; as for `O=C(Nc1ccc2nc3n(c(=O)c2c1)CCCC3)c1cccnc1Cl`, 14%.
Regarding `O=C(O)c1sc2cc(C(F)(F)F)cnc2c1-c1ccccn1`, the “hERG current change (%, negative = inhibition) at 1uM” value was determined as 18.6%.
As for `Cc1cc(C)n(-c2cccc(Cl)c2)c(=O)c1C#N`, the “hERG current change (%, negative = inhibition) at 1uM” value came to 25.1%.
For the compound `Br.O=C(O)c1cscn1`, the “hERG current change (%, negative = inhibition) at 1uM” value is given as 11.3%.
For `CCOCCCn1c(SCc2nc3ccccc3s2)nc2ccccc2c1=O`, the “hERG current change (%, negative = inhibition) at 1uM” value is given as 10.2%.
With `O=C(O)c1ccc(OS(=O)(=O)c2cccc(C(F)(F)F)c2)cc1`, the “hERG current change (%, negative = inhibition) at 1uM” value worked out at 8.16%.
On to `Cc1nc2c(c(=O)[nH]1)C(c1ccc([N+](=O)[O-])cc1)c1c(c3ccccc3oc1=O)O2` (stereo not drawn), for which the “hERG current change (%, negative = inhibition) at 1uM” value worked out at 1.19%.
Take `Cc1ccc(C(=O)OC(C)C(=O)c2cc(C)c(C)cc2C)o1` (stereo not drawn): the “hERG current change (%, negative = inhibition) at 1uM” value came to 6.31%.
Regarding `COc1ccc(S(=O)(=O)n2cnc3ccccc32)cc1OC`, the “hERG current change (%, negative = inhibition) at 1uM” value was 16.4%.
As for `COc1ccc(C)cc1S(=O)(=O)N1CCN(S(=O)(=O)c2cc(C)ccc2OC)CC1`, the “hERG current change (%, negative = inhibition) at 1uM” value amounted to 7.04%.
In the case of `COc1ccc(OCC2NCCc3cc(OC)c(OC)cc32)cc1` (stereo not drawn), the “hERG current change (%, negative = inhibition) at 1uM” value worked out at 2.34%.
`CCOC(=O)c1sc(=S)n(-c2ccc(C)cc2)c1N`: the “hERG current change (%, negative = inhibition) at 1uM” value turned out to be 12.2%.
For `CCCn1c(N)c(C(=O)CSc2nnc(C3CC3)n2-c2ccccc2)c(=O)[nH]c1=O`, the “hERG current change (%, negative = inhibition) at 1uM” value came to 0.363%.
Consider `COCCN(C(=O)CSCC(=O)Nc1ccc(C)cc1)c1c(N)n(CC(C)C)c(=O)[nH]c1=O`, for which the “hERG current change (%, negative = inhibition) at 1uM” value came out at 11.6%.
Regarding `O=C1c2[nH]nc(-c3ccccc3O)c2C(c2cccc(Cl)c2)N1Cc1ccco1` (stereo not drawn), the “hERG current change (%, negative = inhibition) at 1uM” value came to 1.09%.
As for `CC12CCC(=O)C=C1CCC1C2CCC2(C)C1CCC2(O)C(=O)CO` (stereo not drawn), the figure is 8.16%; as for `CCn1nc(CCC(=O)O)c2ccccc2c1=O`, 8.96%.
`O=S(=O)(c1ccccc1)N1N=C(c2cccs2)CC1c1ccc(F)cc1` (stereo not drawn): the “hERG current change (%, negative = inhibition) at 1uM” value amounted to 5.6%.
The same measure for `Cc1cc(C)nc(Oc2ccc([N+](=O)[O-])cc2)n1`: 21.8%; for `N#C/C(=C(/O)COC(=O)c1ccc2c(c1)OCCO2)c1nc2ccccc2[nH]1`: 10.4%.
Consider `COc1ccc(S(=O)(=O)NNC(=O)C(=O)NNc2ccccn2)cc1`, for which the “hERG current change (%, negative = inhibition) at 1uM” value stood at 6.48%.
Regarding `Cc1nnc(SCC(=O)NCc2ccc3c(c2)OCO3)s1`, the “hERG current change (%, negative = inhibition) at 1uM” value came to 17.3%.
Consider `N#CCSc1nc2ccccc2c(=O)n1CCCC(=O)NCc1ccco1`, for which the “hERG current change (%, negative = inhibition) at 1uM” value stood at 2.78%.
`Cc1ccnc(SC2CC(=O)N(c3ccc(Cl)cc3)C2=O)n1` (stereo not drawn): the “hERG current change (%, negative = inhibition) at 1uM” value stood at 19.2%.
As for `COC(=O)N/N=C/c1cccc([N+](=O)[O-])c1`, the figure is 13.1%; as for `O=C(O)CC1(CC(=O)Nc2cc(F)ccc2Cl)CCCCC1`, 2.97%; as for `O=C(NCC1OCCc2ccccc21)c1cc(COc2c(F)cccc2F)on1` (stereo not drawn), 2.9%.
For `COCCn1c(=O)c2cc3c(=O)n(CCOC)c(=O)c3cc2c1=O`, the “hERG current change (%, negative = inhibition) at 1uM” value turned out to be 5.45%.
With `Cc1oc(-c2ccccc2F)nc1CS(=O)(=O)CC(=O)N1CCOCC1`, the “hERG current change (%, negative = inhibition) at 1uM” value is 15.8%.
Take `CC1CN(c2ccc(S(=O)(=O)N3CCOCC3)cn2)CC(C)O1` (stereo not drawn): the “hERG current change (%, negative = inhibition) at 1uM” value was determined as 17.3%.
On to `CCCCn1c(N)c(N(CCOC)C(=O)C2CCN(S(=O)(=O)c3ccc(C)cc3)CC2)c(=O)[nH]c1=O`, for which the “hERG current change (%, negative = inhibition) at 1uM” value is recorded as 9.38%.
With `COc1ccccc1OCC(=O)Nc1ccccc1C(=O)N1CCCCC1`, the “hERG current change (%, negative = inhibition) at 1uM” value was found to be 14.3%.
With `Cc1ccc(NC2Sc3ccccc3NC2=O)cc1` (stereo not drawn), the “hERG current change (%, negative = inhibition) at 1uM” value was 8.68%.
As for `CC1CCCC(C)N1C(=O)COC(=O)Cc1c[nH]c2ccccc12` (stereo not drawn), the figure is 14.5%.
On to `CCOC(=O)CNC(=O)C1CCCc2c1[nH]c1ccc(Cl)cc21` (stereo not drawn), for which the “hERG current change (%, negative = inhibition) at 1uM” value is reported as 10.8%.
Take `CCCCn1c(N)c(N(CC(C)C)C(=O)CCCSc2nncs2)c(=O)[nH]c1=O`: the “hERG current change (%, negative = inhibition) at 1uM” value amounted to 9.44%.
`O=C(Nc1sc2c(c1C(=O)N1CCOCC1)CCCCC2)c1cccnc1`: the “hERG current change (%, negative = inhibition) at 1uM” value is recorded as 11.4%.
Take `CCCn1c(-c2cccs2)nc2ccccc21`: the “hERG current change (%, negative = inhibition) at 1uM” value is -4.48%.
For `CCn1c(=O)[nH]c2cc(C(=O)Nc3cc(C)cc(C)c3)ccc2c1=O`, the “hERG current change (%, negative = inhibition) at 1uM” value was 13%.
The same measure for `C=CCn1c(O)c(C(CC)=NCCCO)c(=O)[nH]c1=O`: 7.51%; for `O=C(CCC1CCCC1)Nc1cc(C(F)(F)F)ccc1N1CCOCC1`: 11.4%.
